Five compounds from patent US4742064A, “Antiviral carbocyclic analogs of xylofuranosylpurines” (Regents of the University of Minnesota, priority 1985, dated 1988) can be followed below.

One experiment concerns HSV-1 (E-377). The experiment in a line: cytopathogenic effects (CPE)-inhibition procedure, HSV-1, Vero cells. Particulars: Human alphaherpesvirus 1, Vero, read-out: MIC50 (minimum inhibitory concentration required for 50% inhibition of virus-induced CPE), HSV-1 (E-377). The procedure: (§1) Analogs 9a, 10a, 13a, and 14a were evaluated for in vitro antiviral activity against HSV-1. Analogs 9a and 13a were further evaluated for activity against HSV-2. The analogs were evalulated by a cytopathogenic effects (CPE)-inhibition procedure. The host cell culture systems employed were pre-grown Vero cell monolayers. A virus rating of one or greater is indicative of a compound with a favorable balance between its antiviral effect and its cytotoxicity to the host cells.
(§2) *VR = virus rating: A measurement of selective antiviral activity which
(§3) takes into account the degree of inhibition of virusinduced cytopathogeni
(§4) effects (CPE) and the degree of cytotoxicity produced by the test
(§5) compound, determined by a modification of the method of Ehrlich et al.
(§6) (Ann. N.Y. Acad. Sci. 130: 5-16, 1965). A VR ≥ 1.0 indicates
(§7) definite (+) antiviral activity, a VR of 0.5-0.9 indicates marginal to
(§8) moderate (+) antiviral activity, and a VR < 0.5 usually indicates no (-)
(§9) significant antiviral activity.
(§10) **MIC50 = Minimum inhibitory concentration required for 50%
(§11) inhibition of virusinduced CPE (in μg/ml).
In general terms: Protection from cytopathic effect is a common read-out in antiviral testing.

A further experiment has as its system HSV-2 (MS). In words: cytopathogenic effects (CPE)-inhibition procedure, HSV-2, Vero cells. Particulars: Human alphaherpesvirus 2, Vero, read-out: MIC50 (minimum inhibitory concentration required for 50% inhibition of virus-induced CPE), HSV-2 (MS). How it is done: as §1, §2, §3, §4, §5, §6, §7, §8, §9, §10, §11

Values after ≈ are worked out from the molar mass of the structure shown.

As to `Nc1nc(N)c2nnn([C@@H]3C[C@H](CO)[C@H](O)[C@H]3O)c2n1` (relative stereo) [Compound 14a, (d1)-(1 α,2 β,3 α,5 α)-3-(5,7-Diamino-3H-1,2,3-triazalo[4,5-d]pyrimidin-3-yl)-5-(hydroxymethyl)-1,2-cyclopentanediol], the EC50 with HSV-1 (E-377) stood at 66.9 µg/mL (≈ 238 µM).
`Nc1nc2c(ncn2[C@@H]2C[C@H](CO)[C@H](O)[C@H]2O)c(=O)[nH]1` (relative stereo) [Compound 9a, (d1)-2-Amino-1,9-dihydro-9-[(1 α,2 β,3 α,4 α)-2,3-dihydroxy-4-(hydroxymethyl)cyclopentyl]-6H-purin-6-one]: the EC50 in the experiment with HSV-1 (E-377) came to 3 µg/mL (≈ 10.7 µM); in the experiment with HSV-2 (MS), 23.5 µg/mL (≈ 83.5 µM).
Consider `Nc1ncnc2c1ncn2[C@@H]1O[C@H](CO)[C@@H](O)[C@@H]1O.O` [Ara-A, 9-β-D-arabinofuranosyladenine monohydrate, reference compound], for which the EC50 was 21.8 µg/mL in the experiment with HSV-1 (E-377) and 40.6 µg/mL in the experiment with HSV-2 (MS).
For the compound `Nc1nc2c(nnn2[C@@H]2C[C@H](CO)[C@H](O)[C@H]2O)c(=O)[nH]1` (relative stereo) [Compound 13a, (d1)-5-Amino-3,6-dihydro-3-[(1 α,2 β,3 α,5 α)-2,3-dihydroxy-4-(hydroxymethyl)cyclopentyl]-7H-1,2,3-triazalo[4,5-d]pyrimidin-7-one], the EC50 in the experiment on HSV-1 (E-377) came out at 60.8 µg/mL (≈ 215 µM); with HSV-2 (MS), 92.2 µg/mL (≈ 327 µM).
In the case of `Nc1nc(N)c2ncn([C@@H]3C[C@H](CO)[C@H](O)[C@H]3O)c2n1` (relative stereo) [Compound 10a], the EC50 with HSV-1 (E-377) worked out at 85 µg/mL (≈ 303 µM).
